Laboratory results from patent publication US20250268904A1 (priority 2020, published 2025).

System: native kinases in melanoma A375 cells (PIKfyve, PIP4K2C)
Assay: KiNativ profiling of native kinases in melanoma A375 cells
Assay type: cell-based, human
Details: A375 cells cultured one hour with 1 μM or 0.05 μM WX8
Experimental: FIG. 2. […] WX8 was profiled quantitatively against all the native kinases in melanoma A375 cells under conditions where protein-protein interactions, differential phosphorylation, and other naturally occurring modifications are preserved (KiNativ, http://www.kinativ.com/technology.htmi). Cells were cultured for one hour with either 1 μM or 0.05 μM WX8. The cells were then treated with biotinylated acyl phosphates of ATP and ADP irreversibly react with conserved lysine residues in the ATP-binding pocket of protein kinases, lipid kinases and heat shock proteins. Proteins were identified by mass spectroscopy. Results were analyzed using a melanoma A375-kinase-ATP probe list of 312 targets. The averages of three independent assays are reported (Student T-test score <0.04).

C1=Nc2ccccc2/C1=C/NNc1nc(Nc2ccccc2)nc(N2CCOCC2)n1 [WX8]
kinase binding specificity in cells: bound primarily to the PIKfyve and secondarily to PIP4K2C
